These results are taken from PubChem BioAssay AID1508642 (National Center for Advancing Translational Sciences (NCATS), 2021).

SMILES strings stand for the structures. The whole screen tested about 43,000 compounds, of which about 200 (0.47%) were called active. Roughly 12% stayed inconclusive and do not appear here. Calls come from the whole dose curve; as a rule, active = well fitted cell-killing curve with a large enough effect; inconclusive = small, poorly fitted or top-dose-only effect, or effect the other way; inactive = flat fitted curve, though single readings scatter. Some of the results follow.
% is set by controls: 0 for no effect and ±100 for the full control effect; potency is the fitted concentration of half-maximal effect.

This experiment is described as follows: Cell viability qHTS assay in S16 Pmp22-F2sN cells. Note: nearly all actives have a fitted effect of over 65% in size. Particulars: S16 Pmp22-F2sN Schwann cells (luciferase reporters placed in the Pmp22 gene) viability, CellTiter-Glo, 24 h; series mostly up to 57.5 µM; activity change, negative = cytotoxicity: at the top concentration. The essentials: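 Seed 500-1,000 S16 Pmp22-F2sN cells per well in phenol-red-free DMEM with 10% heat-inactivated FBS; pin-add 23 nL compound; incubate 24 h at 37C; add CellTiter-Glo, wait 15 min protected from light; read luminescence.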
Take `CCOc1ccccc1NC(=O)C1CCN(S(=O)(=O)c2ccc3c(c2)CCCN3C(C)=O)CC1`: the “activity change, negative = cytotoxicity” value was inactive: -0.724%.

Consider `CC(C)c1ccc(NS(=O)(=O)c2ccc3[nH]cc(C(=O)NCCc4ccccc4)c(=O)c3c2)cc1`, for which the “activity change, negative = cytotoxicity” value was inactive: -4.81%.

Turning to `CCOC(=O)c1cc(-c2ccc(F)cc2)n(CCC(=O)Nc2nc3ccc(OC)cc3s2)c1C`, the “activity change, negative = cytotoxicity” value was inactive: -17.3%.

On to `CCOC(=O)CC(NC(=O)CCc1c(C)nc2c(c1C)c(=O)n(C)c(=O)n2C)c1ccc(OCC)c(OC)c1` (stereo not drawn), for which the “activity change, negative = cytotoxicity” value was inactive: -17%.

For the compound `CC(=O)Nc1ccc(NC(=O)C(Cc2ccccc2)NS(=O)(=O)c2ccc3c(c2)oc(=O)n3C)cc1` (stereo not drawn), the “activity change, negative = cytotoxicity” value was inactive: -9.78%.

Turning to `CCOc1cc(-c2ccc(OC(=O)c3ccc(OC)cc3)c(OC)c2)cc(=O)c2c(C)oc(C)c12`, the “activity change, negative = cytotoxicity” value was inactive: -14.9%.

On to `CCn1nc(C)c2c(-c3ccccc3)cc(=O)n(C(C)C(=O)NCCc3ccc(OC)c(OC)c3)c21` (stereo not drawn), for which the “activity change, negative = cytotoxicity” value was inactive: -8.92%.

With `Cc1ccc(-n2nc(C)c3c(C)cc(=O)n(CC(=O)NC(C)c4ccccc4)c32)cc1` (stereo not drawn), the “activity change, negative = cytotoxicity” value was inactive: 2.92%.

In the case of `Cn1c(=O)c2sccc2n2c(CCCC(=O)NC3CCCCC3)nnc12`, the “activity change, negative = cytotoxicity” value was inactive: -11.3%.

Regarding `COc1ccc(NCc2cc3cc4c(cc3n(CC(=O)Nc3ccc(C)c(C)c3)c2=O)OCO4)cc1`, the “activity change, negative = cytotoxicity” value was inactive: 8.93%.

Take `CC(C)(C)OC(=O)N1CCC(c2c(C(=O)N3CCCCC3)cnn2-c2ccccc2Cl)CC1`: the “activity change, negative = cytotoxicity” value was inactive: 1.33%.

For `Cn1c(=O)oc2cc(S(=O)(=O)CCC(=O)NCCc3ccc(Cl)cc3)ccc21`, the “activity change, negative = cytotoxicity” value was inactive: 8.43%.

For `COc1ccccc1OCc1nc(C#N)c(NCc2ccc(C)cc2)o1`, the “activity change, negative = cytotoxicity” value is inactive: -9.67%.

For the compound `COc1ccc(-c2nn(-c3ccccc3)cc2C2NC(=O)NC(C)=C2C(=O)OC(C)C)cc1Cl` (stereo not drawn), the “activity change, negative = cytotoxicity” value is inactive: -22.1%.

Turning to `Cc1ccc(Cl)cc1N1CCN(S(=O)(=O)c2cc(Br)cc3c2N(C(=O)C2CC2)CC3)CC1`, the “activity change, negative = cytotoxicity” value is inactive: 8.92%.

For `CCCNC(=O)c1ccc(-n2c(-c3ccccc3)cc3c2CCC(C)C3)cc1` (stereo not drawn), the “activity change, negative = cytotoxicity” value is inactive: 25.3%.

As to `CCOc1ccccc1NC(=O)c1c(NCc2sccc2C)sc2c1CCCCC2`, the “activity change, negative = cytotoxicity” value was inactive: 6.22%.

For the compound `O=c1oc2ccc(Br)cc2cc1-c1csc(-c2ccc(Cl)cc2)n1`, the “activity change, negative = cytotoxicity” value was inactive: -0.102%.

Turning to `O=C(CC(NCc1cccnc1)C(=O)O)Nc1ccc(F)cc1` (stereo not drawn), the “activity change, negative = cytotoxicity” value was inactive: -0.102%.

`Cc1cccc(N2CCN(C(=O)CS(=O)(=O)c3cccc4nsnc34)CC2C)c1` (stereo not drawn): the “activity change, negative = cytotoxicity” value is inactive: -2.39%.

Consider `CCCN1C(=O)C2(c3ccccc31)c1c(oc3ccccc3c1=O)C(=O)N2CCO` (stereo not drawn), for which the “activity change, negative = cytotoxicity” value was inactive: -3.98%.

`C=Cc1ccc(Cn2c(C(=O)O)c(CNCc3cc(Br)ccc3OC)c3ccc(C)cc32)cc1`: the “activity change, negative = cytotoxicity” value was inactive: 1.53%.

Regarding `CN(C)S(=O)(=O)c1ccc2c(c1)N(CC(=O)N1CCN(c3ccc(F)cc3)CC1)CCS2`, the “activity change, negative = cytotoxicity” value is inactive: 12.9%.

`NC(=O)CSc1ncc2c(n1)-c1ccccc1N(Cc1cccc(F)c1)S2(=O)=O`: the “activity change, negative = cytotoxicity” value is inactive: 8.46%.

As for `COc1ccc2nc3oc(C(=O)NCc4ccccc4OC)cc3cc2c1`, the “activity change, negative = cytotoxicity” value is inactive: 10.1%.

For the compound `COc1ccccc1-c1nnc(C2CCN(C(=O)c3ccc(C)cc3)CC2)o1`, the “activity change, negative = cytotoxicity” value is inactive: 7.55%.

`COc1ccc(-c2noc(-c3nnn(-c4cc(C)ccc4C)c3N)n2)cc1`: the “activity change, negative = cytotoxicity” value was inactive: 6.22%.

On to `Cc1ccc(-n2ncc(C(=O)NCCc3ccsc3)c2C2CCN(C(=O)OC(C)(C)C)CC2)cc1C`, for which the “activity change, negative = cytotoxicity” value is inactive: -11.6%.

Turning to `Cc1nc2ccccc2c(=O)n1-c1ccc(NC(=O)C(F)(F)F)cc1`, the “activity change, negative = cytotoxicity” value is inactive: 4.91%.

For the compound `CC1CCN(c2ccc(-c3nc(C(C)C)no3)cc2[N+](=O)[O-])CC1`, the “activity change, negative = cytotoxicity” value was inactive: 5.25%.

In the case of `CCN(CC)CCNC(=O)c1ccc(Cn2c(=O)c3cccn3c3cccnc32)cc1`, the “activity change, negative = cytotoxicity” value is inactive: 0.63%.

In the case of `Cc1ccc(-n2nc(CO)c(C(=O)NCc3cccs3)n2)cc1`, the “activity change, negative = cytotoxicity” value is inactive: -12.7%.

For `O=C(Nc1ccc(Cl)cc1)N1CCN(c2ccc3nnc(-c4ccc(F)cc4)n3n2)CC1`, the “activity change, negative = cytotoxicity” value was inactive: -27.5%.

As for `COc1ccccc1Nc1cc(C(=O)NCc2cccs2)c2ccccc2n1`, the “activity change, negative = cytotoxicity” value is inactive: -3.3%.

`Cc1cc(NC(=O)Nc2nc3c(s2)CCCCCC3)ccc1Br`: the “activity change, negative = cytotoxicity” value is inactive: 28.9%.

As for `Cc1ccc(NCc2nc3ccccc3n2CCOc2ccccc2)cc1`, the “activity change, negative = cytotoxicity” value is inactive: -16.8%.

On to `CCC(=O)N1CCc2cc(S(=O)(=O)CCC(=O)NCc3ccccc3OC)ccc21`, for which the “activity change, negative = cytotoxicity” value is inactive: 1.45%.

Consider `Cc1cc(C)c(S(=O)(=O)NCC(c2cccs2)S(=O)(=O)c2ccccc2)c(C)c1` (stereo not drawn), for which the Potency is active: 12.6 µM.

In the case of `Cc1nc(-c2ccccc2)sc1CCNS(=O)(=O)c1ccc(Br)cc1`, the “activity change, negative = cytotoxicity” value is inactive: -11.9%.

On to `CCNC(=O)Cc1ccc(NC(=O)N2CCCCc3ccccc32)cc1`, for which the “activity change, negative = cytotoxicity” value is inactive: 16.4%.

Regarding `CCCn1c2ccccc2c2cnn(CC(=O)NCCc3ccc(OC)cc3OC)c(=O)c21`, the “activity change, negative = cytotoxicity” value was inactive: 14.8%.

In the case of `CCN(CC)c1nn2c(=O)c(C(=O)NCc3ccc(F)cc3)cnc2s1`, the “activity change, negative = cytotoxicity” value is inactive: 27.5%.

`COc1ccc(CC(=O)NCCc2csc(-c3ccc(Cl)cc3)n2)cc1`: the “activity change, negative = cytotoxicity” value was inactive: 15.9%.

Consider `CCn1nc(C)c(CCN(C)C(=O)Nc2cc(Cl)ccc2C)c1C`, for which the “activity change, negative = cytotoxicity” value was inactive: -2.08%.

Take `CN(C1CCCCC1)S(=O)(=O)c1ccc2c(c1)c(=O)c(C(=O)NCCc1ccccc1)cn2C`: the “activity change, negative = cytotoxicity” value was inactive: 0.551%.

Consider `Cc1cccc(NC(=O)C2CCCN(S(=O)(=O)c3cnc[nH]3)C2)c1C` (stereo not drawn), for which the “activity change, negative = cytotoxicity” value was inactive: 7.82%.

Consider `Cc1ccc2c(c1)cc(C(=O)Nc1ccc(F)cc1F)n2C`, for which the “activity change, negative = cytotoxicity” value was inactive: -17.4%.

With `CCC(C)NC(=O)c1cnn(-c2ccc(Cl)cc2)c1C1CCN(C(=O)OC(C)(C)C)CC1` (stereo not drawn), the “activity change, negative = cytotoxicity” value was inactive: -13.4%.
